pIC50: −log10 of the molar value. Where “and” joins values, the source holds several entries; their conditions need not be identical. Equal entries are not always repeated.
Biological target: cdDHQD (type I dehydroquinate dehydratase) (Clostridioides difficile, UniProt Q186A6)
Experiment: biochemical

Chain of UniProt Q186A6 (Q186A6 whole entry): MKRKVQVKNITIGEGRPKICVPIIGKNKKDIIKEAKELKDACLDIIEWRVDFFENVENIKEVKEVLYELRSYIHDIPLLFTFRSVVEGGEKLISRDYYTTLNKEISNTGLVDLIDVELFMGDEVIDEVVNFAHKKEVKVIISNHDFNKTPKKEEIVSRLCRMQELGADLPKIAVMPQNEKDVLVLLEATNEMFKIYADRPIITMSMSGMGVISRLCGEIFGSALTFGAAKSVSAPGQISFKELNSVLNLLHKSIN

Structure (SMILES) | pIC50
O=C(O)c1ccccc1NC(=O)c1csc2c1CCCC2 [Compound 3] | ~4.52 and 4.51
COc1ccc2nc(NS(=O)(=O)c3cc(Cl)ccc3Cl)sc2c1 [Compound 2] | ~4.52 and 4.46
O=S(=O)(Nc1nc(-c2ccccc2)cs1)c1cc(Cl)ccc1Cl [Compound 1] | ~4.52 and 4.47
